The record followed here is the supplement of paper PMC7826260.

Holding throughout (experiment): uncleaved DNA left, log2 of reads against the no-enzyme library (log2 ratio); higher = less cleavage (more negative = more Rep cleavage of the k-mer); sequences stand for … in CTCGTCCG…ACCGGAGA
Assay [1] has as its system T1, Rep nickase domain of Muscovy duck circovirus.
T1 sequence (Rep 1-111, printed without the tag): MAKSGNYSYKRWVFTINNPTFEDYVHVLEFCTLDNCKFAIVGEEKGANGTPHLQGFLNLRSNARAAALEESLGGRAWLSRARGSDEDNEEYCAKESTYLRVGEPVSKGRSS
As for the experimental part: (§1)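 A pool of 90-nt single-stranded DNAs with seven random bases just before the constant AC of the nick site (name = the seven bases) was cut by 3 µM recombinant His6-SUMO-tagged Rep nickase domain (300 nM DNA, 50 mM HEPES pH 8.0, 50 mM NaCl, 1 mM MnCl2, 1 h, 37 °C, three replicates). Uncut DNA was amplified and sequenced.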

The subject of assay [2] is T2, Rep nickase domain of banana bunchy top virus.
T2 sequence (Rep 1-94, printed without the tag): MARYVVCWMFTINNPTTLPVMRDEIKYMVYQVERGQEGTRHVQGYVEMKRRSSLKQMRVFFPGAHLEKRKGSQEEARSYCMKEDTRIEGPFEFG
On the procedure:
as §1

Assay [3] concerns T3, Rep nickase domain of cabbage leaf curl virus.
T3 sequence (Rep 1-116, printed without the tag): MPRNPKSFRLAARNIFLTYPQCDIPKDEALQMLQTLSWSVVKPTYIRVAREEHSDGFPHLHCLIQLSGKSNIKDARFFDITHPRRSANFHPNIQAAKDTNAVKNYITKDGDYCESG
As for the experimental part:
as §1

Assay [4] has as its system T4, Rep nickase domain of chickpea chlorotic dwarf virus.
T4 sequence (Rep 1-124, printed without the tag): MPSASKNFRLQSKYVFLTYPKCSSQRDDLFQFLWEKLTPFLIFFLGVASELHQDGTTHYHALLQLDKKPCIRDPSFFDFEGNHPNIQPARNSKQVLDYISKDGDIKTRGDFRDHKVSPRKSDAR
As for the experimental part: as §1
Assay [5] deals with T5, Rep nickase domain of faba bean necrotic yellows virus.
T5 sequence (Rep 1-98, printed without the tag): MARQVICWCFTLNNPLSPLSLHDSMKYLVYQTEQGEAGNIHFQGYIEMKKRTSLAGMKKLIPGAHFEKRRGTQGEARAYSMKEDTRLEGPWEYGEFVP
As for the experimental part:
as §1

Assay [6] has as its system T6, Rep nickase domain of maize striate mosaic virus.
T6 sequence (Rep 1-117, printed without the tag): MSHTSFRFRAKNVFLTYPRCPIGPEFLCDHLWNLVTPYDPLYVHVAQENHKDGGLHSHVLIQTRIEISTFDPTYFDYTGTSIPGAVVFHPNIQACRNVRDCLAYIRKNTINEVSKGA
On the procedure: as §1
The subject of assay [7] is T7, Rep nickase domain of porcine circovirus 2.
T7 sequence (Rep 2-116, printed without the tag): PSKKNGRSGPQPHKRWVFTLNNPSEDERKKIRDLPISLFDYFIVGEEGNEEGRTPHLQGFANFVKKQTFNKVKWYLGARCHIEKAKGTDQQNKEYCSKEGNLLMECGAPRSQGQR
As for the experimental part: as §1
The test system of assay [8] is T8, Rep nickase domain of tomato golden mosaic virus.
T8 sequence (Rep 1-124, printed without the tag): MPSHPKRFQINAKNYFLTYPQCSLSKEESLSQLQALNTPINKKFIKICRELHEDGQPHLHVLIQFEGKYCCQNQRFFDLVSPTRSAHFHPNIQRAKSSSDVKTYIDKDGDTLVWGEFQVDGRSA
As for the experimental part: as §1
Assay [9] relates to T9, Rep nickase domain of tomato yellow leaf curl virus.
T9 sequence (Rep 1-136, printed without the tag): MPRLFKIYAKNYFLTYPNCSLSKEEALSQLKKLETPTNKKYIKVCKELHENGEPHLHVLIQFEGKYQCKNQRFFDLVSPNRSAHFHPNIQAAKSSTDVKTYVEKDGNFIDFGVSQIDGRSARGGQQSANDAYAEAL
As for the experimental part: as §1
The subject of assay [10] is T10, Rep nickase domain of wheat dwarf virus.
T10 sequence (Rep 1-137, printed without the tag): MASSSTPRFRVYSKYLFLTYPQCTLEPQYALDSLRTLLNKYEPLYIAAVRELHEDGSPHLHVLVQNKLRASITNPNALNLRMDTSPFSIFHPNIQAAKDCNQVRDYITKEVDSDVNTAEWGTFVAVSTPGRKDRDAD
As for the experimental part: as §1

Some of the results follow. Viral Rep nickase domains cut single-stranded DNA in vitro at 3 µM enzyme and 37 °C for 1 h; the strands have 90 letters, of which the middle is given. Values are log2 of uncut reads against the no-enzyme pool; the lower, the more was cut; hits are not called. The scaling is to total reads; where an enzyme cuts many sequences, the uncut ones exceed 0.

Take CGACTAT: the “uncleaved DNA left (log2)” value in [1] was 0.0688; in assay [2] it was 0.0928; in [3] it was 0.05; in assay [4], 0.574; in assay [5], 0.0655; in assay [6], 1.36. For the same sequence, the “uncleaved DNA left (log2)” value was -0.00649 in assay [7], 0.0151 in assay [8], 0.137 in assay [9] and 0.229 in assay [10].

For the sequence TAGCGGC, the “uncleaved DNA left (log2)” value in assay [1] is 0.0736; in assay [2] it was 0.0228; in [3], -0.0271; in [4] it was 0.0973; in assay [5], -0.0577; in assay [6], -0.0226. Besides, the “uncleaved DNA left (log2)” value in assay [7] turned out to be 0.184; in assay [8] it was 0.175; in assay [9], 0.03; in assay [10], 0.0438.

With TATTAAA, the “uncleaved DNA left (log2)” value is -2.37 in assay [1]; -0.215 in assay [2]; -0.019 in [3]; -0.832 in [4]; 0.0287 in assay [5]; -0.432 in [6]. Besides, the “uncleaved DNA left (log2)” value in assay [7] was -0.783; in [8], 0.0983; in assay [9] it was -0.00638; in assay [10], 0.112.

Consider CACTACG, for which the “uncleaved DNA left (log2)” value in assay [1] was 0.0184; in assay [2] it was 0.108; in assay [3], -0.864; in [4] it was -0.27; in assay [5] it was -0.0134; in assay [6], -1.08. In addition, the “uncleaved DNA left (log2)” value was 0.158 in [7], -0.115 in [8], -0.0916 in [9] and -0.0805 in assay [10].

In the case of CAACGGG, the “uncleaved DNA left (log2)” value in assay [1] was 0.0808; in assay [2], -0.0387; in assay [3] it was -0.249; in [4], -0.217; in assay [5] it was 0.0378; in [6], -0.714. Further, the “uncleaved DNA left (log2)” value in assay [7] is 0.258; in assay [8], 0.149; in assay [9], 0.168; in assay [10] it was -0.0199.

Take CGCGAGA: the “uncleaved DNA left (log2)” value in assay [1] was 0.0348; in assay [2], 0.0673; in assay [3] it was 0.578; in [4], 1.15; in assay [5], -0.0115; in assay [6], 0.717. In addition, the “uncleaved DNA left (log2)” value in assay [7] is 0.12; in [8] it was 0.00585; in [9] it was 0.0943; in assay [10], 0.181.

On to CCGTGAG, for which the “uncleaved DNA left (log2)” value in assay [1] is 0.141; in assay [2], -0.129; in assay [3] it was -0.551; in assay [4] it was -0.111; in assay [5], 0.0286; in [6], -0.503. Also, the “uncleaved DNA left (log2)” value in [7] was 0.13; in [8], -0.108; in assay [9], 0.0699; in assay [10], -0.168.

For the sequence AAGCAGA, the “uncleaved DNA left (log2)” value in assay [1] is 0.0382; in assay [2], 0.0296; in [3], 0.167; in assay [4] it was 0.249; in [5], 0.11; in assay [6] it was -0.0101. For the same sequence, the “uncleaved DNA left (log2)” value in assay [7] was 0.175; in assay [8], 0.204; in [9], 0.0727; in assay [10], 0.0455.

With CCTCCTA, the “uncleaved DNA left (log2)” value in [1] was -0.0948; in [2], -0.073; in assay [3], -0.224; in assay [4], -1.05; in assay [5], -0.0604; in assay [6], -0.449. Further, the “uncleaved DNA left (log2)” value in assay [7] was -0.273; in assay [8], -0.11; in assay [9] it was -0.139; in assay [10], -0.067.

For the sequence TGTGTGC, the “uncleaved DNA left (log2)” value in [1] is 0.0501; in [2], -0.0173; in [3], -0.163; in [4], -0.311; in assay [5], -0.066; in assay [6], -0.743. Also, the “uncleaved DNA left (log2)” value was 0.0831 in assay [7], 0.0372 in assay [8], -0.0296 in assay [9] and -0.0604 in assay [10].

Turning to ATCAGTT, the “uncleaved DNA left (log2)” value in assay [1] is 0.0087; in assay [2], -0.091; in assay [3], -0.213; in assay [4], -2.23; in [5], -0.026; in assay [6], -0.62. Besides, the “uncleaved DNA left (log2)” value in assay [7] was -0.223; in assay [8] it was -0.0622; in [9] it was -0.106; in assay [10], -0.0948.

Turning to CCCTGGC, the “uncleaved DNA left (log2)” value is 0.106 in assay [1]; -0.141 in [2]; -0.133 in assay [3]; -0.323 in assay [4]; 0.0467 in assay [5]; -0.694 in assay [6]. Moreover, the “uncleaved DNA left (log2)” value in [7] was -0.0645; in [8] it was 0.0192; in assay [9] it was -0.053; in [10], -0.00761.

Regarding GCAAGAG, the “uncleaved DNA left (log2)” value in [1] was -0.0695; in [2], -0.121; in [3], -0.513; in assay [4], -0.232; in [5], -0.0176; in assay [6] it was -0.872. For the same sequence, the “uncleaved DNA left (log2)” value in assay [7] is 0.152; in assay [8] it was -0.0292; in assay [9] it was -0.0107; in [10], -0.0962.

As for GTTACGA, the “uncleaved DNA left (log2)” value in assay [1] amounted to 0.0273; in assay [2], 0.109; in [3] it was 0.216; in assay [4], 0.669; in [5], 0.0714; in assay [6], 1.28. Moreover, the “uncleaved DNA left (log2)” value is 0.0836 in [7], -0.00701 in [8], 0.00798 in assay [9] and 0.0945 in assay [10].

Take ACAGTAT: the “uncleaved DNA left (log2)” value is -0.163 in assay [1]; -0.165 in assay [2]; -0.15 in assay [3]; -1.01 in assay [4]; -0.0954 in assay [5]; -0.637 in [6]. In addition, the “uncleaved DNA left (log2)” value is -0.0584 in assay [7], -0.117 in assay [8], -0.155 in assay [9] and -0.217 in assay [10].
